# Some of the results follow.
# Legend:
# Assay in all cases: glycan array binding signal (z-score within array); higher = stronger binding
# Conditions in all cases: glycan notation: IUPAC condensed, linker removed
# [1] = molecular target: Gal(b1-4)GalNAc(b1-3)[Fuc(a1-2)]Gal(b1-4)GlcNAc
# Outline: (§1)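 From the Consortium for Functional Glycomics database, 3228 arrays were curated, keeping only those whose protein sequence was available. Binding is given as a within-array Z-score averaged across arrays sharing a protein sequence and across linkers. Negative Z-scores can be read as non-binding.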
# [2] = molecular target: Gal(b1-4)Glc
# Outline: as §1
# [3] = molecular target: Gal(b1-4)Glc6S
# Outline: as §1
# [4] = molecular target: Gal(b1-4)GlcNAc
# Outline: as §1
# [5] = molecular target: Gal(b1-4)GlcNAc(a1-6)Gal(b1-4)GlcNAc
# Outline: as §1
# [6] = molecular target: Gal(b1-4)GlcNAc(b1-2)Man
# Outline: as §1
# [7] = molecular target: Gal(b1-4)GlcNAc(b1-2)Man(a1-3)Man(b1-4)GlcNAc(b1-4)GlcNAc
# Outline: as §1
# [8] = molecular target: Gal(b1-4)GlcNAc(b1-2)Man(a1-3)[Gal(b1-4)GlcNAc(b1-2)Man(a1-6)]Man(b1-4)GlcNAc(b1-4)GlcNAc
# Outline: as §1
# [9] = molecular target: Gal(b1-4)GlcNAc(b1-2)Man(a1-3)[Gal(b1-4)GlcNAc(b1-2)Man(a1-6)]Man(b1-4)GlcNAc(b1-4)[Fuc(a1-6)]GlcNAc
# Outline: as §1
# [10] = molecular target: Gal(b1-4)GlcNAc(b1-2)Man(a1-3)[Gal(b1-4)GlcNAc(b1-2)Man(a1-6)][Gal(b1-4)GlcNAc(b1-4)]Man(b1-4)GlcNAc(b1-4)[Fuc(a1-6)]GlcNAc
# Outline: as §1
# [11] = molecular target: Gal(b1-4)GlcNAc(b1-2)Man(a1-3)[Gal(b1-4)GlcNAc(b1-2)Man(a1-6)][GlcNAc(b1-4)]Man(b1-4)GlcNAc(b1-4)[Fuc(a1-6)]GlcNAc
# Outline: as §1
# [12] = molecular target: Gal(b1-4)GlcNAc(b1-2)Man(a1-3)[GlcNAc(b1-2)Man(a1-6)]Man(b1-4)GlcNAc(b1-4)GlcNAc
# Outline: as §1
# [13] = molecular target: Gal(b1-4)GlcNAc(b1-2)Man(a1-3)[GlcNAc(b1-4)][Gal(b1-4)GlcNAc(b1-2)Man(a1-6)]Man(b1-4)GlcNAc(b1-4)GlcNAc
# Outline: as §1
# [14] = molecular target: Gal(b1-4)GlcNAc(b1-2)Man(a1-3)[Man(a1-6)]Man(b1-4)GlcNAc(b1-4)GlcNAc
# Outline: as §1
# [15] = molecular target: Gal(b1-4)GlcNAc(b1-2)Man(a1-6)Man(b1-4)GlcNAc(b1-4)GlcNAc
# Outline: as §1
# [16] = molecular target: Gal(b1-4)GlcNAc(b1-2)Man(a1-6)[GlcNAc(b1-2)Man(a1-3)]Man(b1-4)GlcNAc(b1-4)GlcNAc
# Outline: as §1
# [17] = molecular target: Gal(b1-4)GlcNAc(b1-2)Man(a1-6)[Man(a1-3)]Man(b1-4)GlcNAc(b1-4)GlcNAc
# Outline: as §1
# [18] = molecular target: Gal(b1-4)GlcNAc(b1-2)[Gal(b1-4)GlcNAc(b1-4)]Man(a1-3)[Gal(b1-4)GlcNAc(b1-2)Man(a1-6)]Man(b1-4)GlcNAc(b1-4)GlcNAc
# Outline: as §1
# [19] = molecular target: Gal(b1-4)GlcNAc(b1-2)[Gal(b1-4)GlcNAc(b1-4)]Man(a1-3)[Gal(b1-4)GlcNAc(b1-2)[Gal(b1-4)GlcNAc(b1-6)]Man(a1-6)]Man(b1-4)GlcNAc(b1-4)GlcNAc
# Outline: as §1
# [20] = molecular target: Gal(b1-4)GlcNAc(b1-2)[Gal(b1-4)GlcNAc(b1-4)]Man(a1-3)[GlcNAc(b1-4)][Gal(b1-4)GlcNAc(b1-2)Man(a1-6)]Man(b1-4)GlcNAc(b1-4)GlcNAc
# Outline: as §1
# [21] = molecular target: Gal(b1-4)GlcNAc(b1-2)[Gal(b1-4)GlcNAc(b1-4)]Man(a1-3)[GlcNAc(b1-4)][Gal(b1-4)GlcNAc(b1-2)[Gal(b1-4)GlcNAc(b1-6)]Man(a1-6)]Man(b1-4)GlcNAc(b1-4)GlcNAc
# Outline: as §1
# [22] = molecular target: Gal(b1-4)GlcNAc(b1-2)[Gal(b1-4)GlcNAc(b1-6)]Man(a1-6)[Gal(b1-4)GlcNAc(b1-2)Man(a1-3)]Man(b1-4)GlcNAc(b1-4)GlcNAc
# Outline: as §1
binder,measurement,setting,value
APVPVTKLVCDGDTYKCTAYLDFGDGRWVAQWDTNVFHTG [PhoSpL (Pholiota squarrosa)],glycan array binding signal (z-score),[1],-0.431
same,glycan array binding signal (z-score),[2],0.138
same,glycan array binding signal (z-score),[3],-0.231
same,glycan array binding signal (z-score),[4],0.031
same,glycan array binding signal (z-score),[5],-0.288
same,glycan array binding signal (z-score),[6],-0.221
same,glycan array binding signal (z-score),[7],0.18
same,glycan array binding signal (z-score),[8],-0.453
same,glycan array binding signal (z-score),[9],13.4
same,glycan array binding signal (z-score),[10],0.527
same,glycan array binding signal (z-score),[11],-0.011
same,glycan array binding signal (z-score),[12],-0.403
same,glycan array binding signal (z-score),[13],-0.406
same,glycan array binding signal (z-score),[14],0.871
same,glycan array binding signal (z-score),[15],-0.178
same,glycan array binding signal (z-score),[16],-0.432
same,glycan array binding signal (z-score),[17],-0.337
same,glycan array binding signal (z-score),[18],-0.025
same,glycan array binding signal (z-score),[19],-0.639
same,glycan array binding signal (z-score),[20],-0.094
same,glycan array binding signal (z-score),[21],0.046
same,glycan array binding signal (z-score),[22],-0.044

# Reference: the supplement of paper PMC8728848
